The other results are listed elsewhere or left out.
What follows are sequences tested against T1, OsWOX13 (Oryza sativa, UniProt Q5QMM3 1-267) (assay: protein-binding microarray (RPBM); PBS, 2% BSA, 51.3 ng/ul salmon testes DNA, 50 uM zinc acetate, 200 nM TF, 25 C, 1 h; high values mean tight binding). Conditions: protein: recombinant; tags: N-terminal polyhistidine and DsRed monomer fusion (pET32a); label: CyDye5-dUTP incorporated in the synthesized complementary strand; 3' TTTTT single-stranded linker to array surface; dsDNA, one strand shown.
T1 sequence: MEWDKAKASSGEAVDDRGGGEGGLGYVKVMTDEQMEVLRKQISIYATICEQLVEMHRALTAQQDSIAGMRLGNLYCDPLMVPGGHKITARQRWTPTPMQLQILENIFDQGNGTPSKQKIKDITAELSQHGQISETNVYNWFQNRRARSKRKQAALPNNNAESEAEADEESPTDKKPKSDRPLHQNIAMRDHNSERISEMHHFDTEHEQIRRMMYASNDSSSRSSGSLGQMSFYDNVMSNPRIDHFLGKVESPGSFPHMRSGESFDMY
In short: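 Polyhistidine-tagged DsRed fusions of transcription factors, joined at the N-terminus, were expressed in E. coli BL21-CodonPlus and isolated on Ni–NTA. They were incubated at 200 nM for 1 h at 25 °C on a custom Agilent array, double-stranded and BSA-blocked, in PBS with 2% BSA, salmon testes DNA and 50 µM zinc acetate. The binding signal is per-feature fluorescence intensity (arbitrary units) read on an Axon 4000B scanner after washing.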

Row | Sequence | binding signal
1 | TGTTAATGATTTAGATTCATTAACATTAATATGAATGTGGCGGAGTCACCTAGTGCAG | 33700 fluorescence intensity (a.u.)
2 | TGAAAACTTTCAACTTAGATTGGAAAACTTTTAACTCGAGCGGAGTCACCTAGTGCAG | 8230 fluorescence intensity (a.u.)
3 | TGAACTAATTACCACCCATATTGAACACTATGTTACCCTACGGAGTCACCTAGTGCAG | 20400 fluorescence intensity (a.u.)
4 | TATAATTTAGATAATAAACTAGAAGCCAGATTCTTACAAGCGGAGTCACCTAGTGCAG | 11700 fluorescence intensity (a.u.)
5 | AATTAATTTATTCATTTGTATTATTGAATATAATAAAACCCGGAGTCACCTAGTGCAG | 38000 fluorescence intensity (a.u.)
6 | ATAAATTAGCACCCACCTCTGCCTTCCTACCTTCCCCTCCCGGAGTCACCTAGTGCAG | 24900 fluorescence intensity (a.u.)
7 | CTCTACATCTAATTAGATATGTACAGTATTTTAAAATTGACGGAGTCACCTAGTGCAG | 12700 fluorescence intensity (a.u.)
8 | CGGCCTATAATCAATCAATCGTTTGTTTGTCACATCCAACCGGAGTCACCTAGTGCAG | 19000 fluorescence intensity (a.u.)
9 | TCCCTGAAATTTCTGAATTTTGCCAATTTTGATGGGGCCTCGGAGTCACCTAGTGCAG | 4580 fluorescence intensity (a.u.)
10 | TTTGGCTTGATTGTATACCTTATGTGAACTACTTTGGTACCGGAGTCACCTAGTGCAG | 13000 fluorescence intensity (a.u.)
11 | TTAACTCTTGATTGATGTAAGCTGCAGATCACTTGGATTTCGGAGTCACCTAGTGCAG | 45800 fluorescence intensity (a.u.)
12 | TTCAAACCATGATTGGCCTCCATGAACAAGTAAGAAAAGGCGGAGTCACCTAGTGCAG | 13900 fluorescence intensity (a.u.)
13 | CTAGATGGATTATTCCCACTCAAGAAATCCATCTGACCGTCGGAGTCACCTAGTGCAG | 13600 fluorescence intensity (a.u.)
14 | ACAAATTTACATACTAATTGTAATTAGTATGTAATTTTCGCGGAGTCACCTAGTGCAG | 31600 fluorescence intensity (a.u.)
15 | TTGATGACACTATTTTCACATAACAGCATTGCATGATTGCCGGAGTCACCTAGTGCAG | 3870 fluorescence intensity (a.u.)
16 | TTAATTTAATGAAACTAATTTAGTAATATAAATATTATTACGGAGTCACCTAGTGCAG | 25000 fluorescence intensity (a.u.)
17 | AACCAGGCTTACAAATTTGATTGTTTATTGAAGATCGACCCGGAGTCACCTAGTGCAG | 13600 fluorescence intensity (a.u.)
18 | ATTCAAATATGATTTTATTGGTTAACAACGAGATCTTATGCGGAGTCACCTAGTGCAG | 5790 fluorescence intensity (a.u.)
19 | GCACCTAATTTTCTTCGTCCTCTCCCTCTCTTCTTCTCTTCGGAGTCACCTAGTGCAG | 3190 fluorescence intensity (a.u.)
20 | CCTAATTAATCCGTCATTAGCAAATGTTTACTGTCACCACCGGAGTCACCTAGTGCAG | 36200 fluorescence intensity (a.u.)
21 | GCAATAATCTGATTAATTAACGCGTTGTAGACACGCGGATCGGAGTCACCTAGTGCAG | 21100 fluorescence intensity (a.u.)
22 | CCCCACTAATCACTAATGATCCAAAGGAATAAACCCTTCCCGGAGTCACCTAGTGCAG | 8860 fluorescence intensity (a.u.)
23 | CTGTCTCATTTCAATTCACACTCAATCAATTCTCTTGCATCGGAGTCACCTAGTGCAG | 6190 fluorescence intensity (a.u.)
24 | AGTGATGGCATTGACTGACTTGGGGAAGGAAACAATCGAGCGGAGTCACCTAGTGCAG | 16000 fluorescence intensity (a.u.)
25 | AATACTCAATTAATCATGAGCTAATAGCTCACATCGTTTCCGGAGTCACCTAGTGCAG | 9430 fluorescence intensity (a.u.)
26 | GACTAATTGCTCCATGATTTAATAATGTGGTGTTACAGTACGGAGTCACCTAGTGCAG | 47400 fluorescence intensity (a.u.)
27 | GCGATTTGGAGCGTCTGATTGGCCAAAGCATTGTTCATCACGGAGTCACCTAGTGCAG | 6470 fluorescence intensity (a.u.)

Row | Sequence | binding signal
28 | ATAGGATTGAATAAGATTTCTCCTTTTGTTGTTCGAACTTCGGAGTCACCTAGTGCAG | 15900 fluorescence intensity (a.u.)
29 | TTCTAGTCTCTTTCTAATCATGCACATTTAATAGTAAAGCCGGAGTCACCTAGTGCAG | 5420 fluorescence intensity (a.u.)
30 | AGATGATTTCTGCAAACTCAACAGCCAATTGCAATGGGAACGGAGTCACCTAGTGCAG | 9270 fluorescence intensity (a.u.)
31 | AGATTAATTAATAAAGCACATAGAAAGCCTTGTTAATTATCGGAGTCACCTAGTGCAG | 6820 fluorescence intensity (a.u.)
32 | TTGTATTAGATGGACATTATGATACATATTATGTCCCTTTCGGAGTCACCTAGTGCAG | 3300 fluorescence intensity (a.u.)
33 | CTTATTTATTTGTGATGATTTTAACTAATATTTGTTTCGACGGAGTCACCTAGTGCAG | 8420 fluorescence intensity (a.u.)
34 | GGAAATTGCTTAAATAAACATTCGACATCGCCATAAGATTCGGAGTCACCTAGTGCAG | 13200 fluorescence intensity (a.u.)
35 | CAAAATTGACACTAACAAATATCGGAGTACAGTGTTACAACGGAGTCACCTAGTGCAG | 24500 fluorescence intensity (a.u.)
36 | ATTAATTAGACTTAATAAATTGTCTCGCAGTTTATACGGCCGGAGTCACCTAGTGCAG | 51300 fluorescence intensity (a.u.)
37 | TTAAATTTTCAAACTTAATTTTGACATTGATTTTGAGATTCGGAGTCACCTAGTGCAG | 22100 fluorescence intensity (a.u.)
38 | ATCTTCACGTTAAACAATCCAAATTGGAGTATTTGAAAAGCGGAGTCACCTAGTGCAG | 3820 fluorescence intensity (a.u.)
39 | CAGAAAGTATCTAGTACTAATCAATTAGGCAACTGTAATGCGGAGTCACCTAGTGCAG | 4090 fluorescence intensity (a.u.)
40 | ATAAAATCTCTTAATTGCCAAAGACTTATCATTTGGAGTACGGAGTCACCTAGTGCAG | 9100 fluorescence intensity (a.u.)
41 | GATCAAAAGAAATTTGCCAAATTTACTGCTTTGTGATGGGCGGAGTCACCTAGTGCAG | 3610 fluorescence intensity (a.u.)
42 | GTAAAATTCCTCGTGATGACATGGACTGATATTTTCCCTGCGGAGTCACCTAGTGCAG | 4550 fluorescence intensity (a.u.)
43 | GGTTTATCGAATCATCGTTGATTACTCGATTGGTTAAGAACGGAGTCACCTAGTGCAG | 3150 fluorescence intensity (a.u.)
44 | GCTATAGCCAATCAATATGAAATCGTTGTCTCCTACAGTACGGAGTCACCTAGTGCAG | 14900 fluorescence intensity (a.u.)
45 | AAATTTGATGATATGATGGATGGATCCAGATGGGAGGAGTCGGAGTCACCTAGTGCAG | 13200 fluorescence intensity (a.u.)
46 | CGTGCTAATTAGCCTGTCCTAATGATGACCATACGTACACCGGAGTCACCTAGTGCAG | 31100 fluorescence intensity (a.u.)
47 | GTTTTAATGAAGCATGTAATTTATCTCTTCATTTAAATCTCGGAGTCACCTAGTGCAG | 6380 fluorescence intensity (a.u.)
48 | AATGATTTTATGGAGAAATCACTTCATCACAAGAGTGGAACGGAGTCACCTAGTGCAG | 18800 fluorescence intensity (a.u.)
49 | ATAAAATGATTTTCCGACCATTTGAGCAATGCATCAAATGCGGAGTCACCTAGTGCAG | 7300 fluorescence intensity (a.u.)
50 | AATCTAATAATTAATTTATACAATAATTAACTATAAATATCGGAGTCACCTAGTGCAG | 17400 fluorescence intensity (a.u.)
51 | ATCTGATTAACCTTAGCTTCTTCGCATTAGACATACTACACGGAGTCACCTAGTGCAG | 17800 fluorescence intensity (a.u.)
52 | TAAACTGTACATGTATAATTAATAGATATCAAGCTAGCTACGGAGTCACCTAGTGCAG | 6040 fluorescence intensity (a.u.)
53 | TATCCCTTTGATTATCGTCGGTTACTCCTTTGCCATCTCCCGGAGTCACCTAGTGCAG | 8050 fluorescence intensity (a.u.)
54 | ACGTCGAACCCACACTCACCAATCAATCCGCCTCTCCGCACGGAGTCACCTAGTGCAG | 3660 fluorescence intensity (a.u.)

From publication PMC7819943, “Rice protein-binding microarrays: a tool to detect cis-acting elements near promoter regions in rice”
